# Data from the supplement of paper PMC8728848.
# Some of the results follow.
# B1: SefD (Salmonella enterica), Q9L6K6 (protein)
# chain: GAYIIRGQNNSAHKLRIRIGGEDWQPDNSGIGMVSHSDFTNEFNIYYFGNGDIPVDTYLISIYATEIEL
# Legend:
# Test in all cases: glycan array binding signal (z-score within array); higher = stronger binding
# Details in all cases: glycan notation: IUPAC condensed, linker removed
# [1] = biological target: Gal(b1-4)GlcNAc(b1-3)Gal(b1-4)Glc
# Procedure, shortened: (§1)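 Arrays were curated from the Consortium for Functional Glycomics database, 3228 in total, and kept only where the protein sequence was available. Binding is expressed as a within-array Z-score. This score was averaged across arrays of the same protein sequence at different concentrations or buffers and across linkers, and negative values can be read as non-binding.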
# [2] = biological target: Gal(b1-4)GlcNAc(b1-3)Gal(b1-4)GlcNAc
# Procedure, shortened: as §1
# [3] = biological target: Gal(b1-4)GlcNAc(b1-3)Gal(b1-4)GlcNAc(b1-3)Gal(b1-4)GlcNAc
# Procedure, shortened: as §1
# [4] = biological target: Gal(b1-4)GlcNAc(b1-3)Gal(b1-4)[Fuc(a1-3)GlcNAc(b1-6)]Gal(b1-4)Glc
# Procedure, shortened: as §1
# [5] = biological target: Gal(b1-4)GlcNAc(b1-3)Gal(b1-4)[Fuc(a1-3)]GlcNAc(b1-3)Gal(b1-4)[Fuc(a1-3)]GlcNAc
# Procedure, shortened: as §1
# [6] = biological target: Gal(b1-4)GlcNAc(b1-3)GalNAc
# Procedure, shortened: as §1
# [7] = biological target: Gal(b1-4)GlcNAc(b1-3)[Gal(b1-4)GlcNAc(b1-6)]Gal(b1-4)GlcNAc
# Procedure, shortened: as §1
# [8] = biological target: Gal(b1-4)GlcNAc(b1-3)[Gal(b1-4)GlcNAc(b1-6)]GalNAc
# Procedure, shortened: as §1
# [9] = biological target: Gal(b1-4)GlcNAc(b1-3)[GlcNAc(b1-6)]Gal(b1-4)GlcNAc
# Procedure, shortened: as §1
# [10] = biological target: Gal(b1-4)GlcNAc(b1-6)Gal(b1-4)GlcNAc
# Procedure, shortened: as §1
# [11] = biological target: Gal(b1-4)GlcNAc(b1-6)GalNAc
# Procedure, shortened: as §1
# [12] = biological target: Gal(b1-4)GlcNAc(b1-6)[Gal(b1-3)]GalNAc
# Procedure, shortened: as §1
# [13] = biological target: Gal(b1-6)Gal
# Procedure, shortened: as §1
# [14] = biological target: Gal3S(b1-3)GalNAc
# Procedure, shortened: as §1
# [15] = biological target: Gal3S(b1-3)GlcNAc
# Procedure, shortened: as §1
# [16] = biological target: Gal3S(b1-3)[Fuc(a1-4)]GlcNAc
# Procedure, shortened: as §1
# [17] = biological target: Gal3S(b1-4)Glc
# Procedure, shortened: as §1
# [18] = biological target: Gal3S(b1-4)Glc6S
# Procedure, shortened: as §1
# [19] = biological target: Gal3S(b1-4)GlcNAc
# Procedure, shortened: as §1
# [20] = biological target: Gal3S(b1-4)GlcNAc6S
# Procedure, shortened: as §1
# [21] = biological target: Gal3S(b1-4)[Fuc(a1-3)]Glc
# Procedure, shortened: as §1
# [22] = biological target: Gal3S(b1-4)[Fuc(a1-3)]Glc6S
# Procedure, shortened: as §1
# [23] = biological target: Gal3S4S(b1-4)GlcNAc
# Procedure, shortened: as §1
# [24] = biological target: Gal3S6S(b1-4)GlcNAc
# Procedure, shortened: as §1
# [25] = biological target: Gal3S6S(b1-4)GlcNAc6S
# Procedure, shortened: as §1
# [26] = biological target: Gal4S(b1-4)GlcNAc
# Procedure, shortened: as §1
# [27] = biological target: Gal4S6S(b1-4)GlcNAc
# Procedure, shortened: as §1
# [28] = biological target: Gal6S(b1-3)GlcNAc
# Procedure, shortened: as §1
# [29] = biological target: Gal6S(b1-3)GlcNAc6S
# Procedure, shortened: as §1
# [30] = biological target: Gal6S(b1-4)Glc
# Procedure, shortened: as §1
# [31] = biological target: Gal6S(b1-4)Glc6S
# Procedure, shortened: as §1
# [32] = biological target: Gal6S(b1-4)GlcNAc
# Procedure, shortened: as §1
# [33] = biological target: Gal6S(b1-4)GlcNAc6S
# Procedure, shortened: as §1
# [34] = biological target: GalNAc(a1-3)Gal
# Procedure, shortened: as §1
# [35] = biological target: GalNAc(a1-3)GalNAc
# Procedure, shortened: as §1
# [36] = biological target: GalNAc(a1-3)GalNAc(b1-3)Gal(a1-4)Gal(b1-4)Glc
# Procedure, shortened: as §1
# [37] = biological target: GalNAc(a1-3)GalNAc(b1-3)Gal(a1-4)Gal(b1-4)GlcNAc
# Procedure, shortened: as §1
# [38] = biological target: GalNAc(b1-3)Gal
# Procedure, shortened: as §1
# [39] = biological target: GalNAc(b1-3)Gal(a1-4)Gal(b1-4)GlcNAc
# Procedure, shortened: as §1
# [40] = biological target: GalNAc(b1-3)Gal(a1-4)Gal(b1-4)GlcNAc(b1-3)Gal(b1-4)Glc
# Procedure, shortened: as §1
# [41] = biological target: GalNAc(b1-3)Gal(a1-6)Gal(b1-4)Glc
# Procedure, shortened: as §1
# [42] = biological target: GalNAc(b1-3)GalNAc
# Procedure, shortened: as §1
# [43] = biological target: GalNAc(b1-4)Gal(b1-4)Glc
# Procedure, shortened: as §1
# [44] = biological target: GalNAc(b1-4)GlcNAc
# Procedure, shortened: as §1
# [45] = biological target: GalNAc(b1-4)GlcNAc(b1-2)Man(a1-3)[GalNAc(b1-4)GlcNAc(b1-2)Man(a1-6)]Man(b1-4)GlcNAc(b1-4)GlcNAc
# Procedure, shortened: as §1
binder,measurement,setting,value
B1,glycan array binding signal (z-score),[1],-0.19
same,glycan array binding signal (z-score),[2],0.274
same,glycan array binding signal (z-score),[3],-0.505
same,glycan array binding signal (z-score),[4],-0.433
same,glycan array binding signal (z-score),[5],0.134
same,glycan array binding signal (z-score),[6],-0.392
same,glycan array binding signal (z-score),[7],-0.614
same,glycan array binding signal (z-score),[8],-0.441
same,glycan array binding signal (z-score),[9],-0.538
same,glycan array binding signal (z-score),[10],-0.161
same,glycan array binding signal (z-score),[11],-0.074
same,glycan array binding signal (z-score),[12],-0.044
same,glycan array binding signal (z-score),[13],-0.363
same,glycan array binding signal (z-score),[14],-0.236
same,glycan array binding signal (z-score),[15],-0.133
same,glycan array binding signal (z-score),[16],-0.176
same,glycan array binding signal (z-score),[17],-0.466
same,glycan array binding signal (z-score),[18],-0.18
same,glycan array binding signal (z-score),[19],1.12
same,glycan array binding signal (z-score),[20],0.393
same,glycan array binding signal (z-score),[21],-0.48
same,glycan array binding signal (z-score),[22],-0.296
same,glycan array binding signal (z-score),[23],-0.413
same,glycan array binding signal (z-score),[24],-0.484
same,glycan array binding signal (z-score),[25],0.009
same,glycan array binding signal (z-score),[26],-0.02
same,glycan array binding signal (z-score),[27],-0.213
same,glycan array binding signal (z-score),[28],-0.091
same,glycan array binding signal (z-score),[29],-0.408
same,glycan array binding signal (z-score),[30],0.288
same,glycan array binding signal (z-score),[31],-0.435
same,glycan array binding signal (z-score),[32],-0.524
same,glycan array binding signal (z-score),[33],-0.182
same,glycan array binding signal (z-score),[34],-0.209
same,glycan array binding signal (z-score),[35],-0.036
same,glycan array binding signal (z-score),[36],-0.316
same,glycan array binding signal (z-score),[37],-0.545
same,glycan array binding signal (z-score),[38],-0.303
same,glycan array binding signal (z-score),[39],0.251
same,glycan array binding signal (z-score),[40],0.448
same,glycan array binding signal (z-score),[41],-0.631
same,glycan array binding signal (z-score),[42],-0.05
same,glycan array binding signal (z-score),[43],0.2
same,glycan array binding signal (z-score),[44],0.499
same,glycan array binding signal (z-score),[45],-0.267
